# In the supplement of paper PMC8728848:
# The list shows a part of the results.
# Key:
# Experiment in all cases: glycan array binding signal (z-score within array); higher = stronger binding
# Conditions in all cases: glycan notation: IUPAC condensed, linker removed
# [1] = target: Gal(a1-3)Gal(b1-4)[Fuc(a1-3)]GlcNAc
# Procedure, shortened: (§1)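 The binding signal is a Z-score computed within each array and averaged over linkers. Arrays of the same protein sequence at different concentrations or buffers were also averaged together. Data originate from 3228 arrays in the Consortium for Functional Glycomics database, kept only where the protein sequence was available.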
# [2] = target: Gal(a1-3)Gal(b1-4)[Fuc(a1-3)]GlcNAc(b1-2)Man(a1-3)[Gal(a1-3)Gal(b1-4)[Fuc(a1-3)]GlcNAc(b1-2)Man(a1-6)]Man(b1-4)GlcNAc(b1-4)GlcNAc
# Procedure, shortened: as §1
# Gal(a1-3)GalNAc = target: Gal(a1-3)GalNAc
# Procedure, shortened: as §1
# [3] = target: Gal(a1-3)[Gal(a1-4)]Gal(b1-4)GlcNAc
# Procedure, shortened: as §1
# [4] = target: Gal(a1-4)Gal(b1-3)GlcNAc(b1-2)Man(a1-3)[Gal(a1-4)Gal(b1-3)GlcNAc(b1-2)Man(a1-6)]Man(b1-4)GlcNAc(b1-4)GlcNAc
# Procedure, shortened: as §1
# Gal(a1-4)Gal(b1-4)Glc = target: Gal(a1-4)Gal(b1-4)Glc
# Procedure, shortened: as §1
# Gal(a1-4)Gal(b1-4)GlcNAc = target: Gal(a1-4)Gal(b1-4)GlcNAc
# Procedure, shortened: as §1
# [5] = target: Gal(a1-4)Gal(b1-4)GlcNAc(b1-2)Man(a1-3)[Gal(a1-4)Gal(b1-4)GlcNAc(b1-2)Man(a1-6)]Man(b1-4)GlcNAc(b1-4)GlcNAc
# Procedure, shortened: as §1
# [6] = target: Gal(a1-4)Gal(b1-4)GlcNAc(b1-3)Gal(b1-4)Glc
# Procedure, shortened: as §1
# Gal(a1-4)GlcNAc = target: Gal(a1-4)GlcNAc
# Procedure, shortened: as §1
# Gal(a1-6)Glc = target: Gal(a1-6)Glc
# Procedure, shortened: as §1
# Gal(b1-2)Gal = target: Gal(b1-2)Gal
# Procedure, shortened: as §1
# Gal(b1-3)Gal = target: Gal(b1-3)Gal
# Procedure, shortened: as §1
# Gal(b1-3)Gal(b1-4)GlcNAc = target: Gal(b1-3)Gal(b1-4)GlcNAc
# Procedure, shortened: as §1
# [7] = target: Gal(b1-3)Gal(b1-4)GlcNAc(b1-2)Man(a1-3)[Gal(b1-3)Gal(b1-4)GlcNAc(b1-2)Man(a1-6)]Man(b1-4)GlcNAc(b1-4)GlcNAc
# Procedure, shortened: as §1
# Gal(b1-3)GalNAc = target: Gal(b1-3)GalNAc
# Procedure, shortened: as §1
# [8] = target: Gal(b1-3)GalNAc(a1-3)[Fuc(a1-2)]Gal(b1-4)Glc
# Procedure, shortened: as §1
# [9] = target: Gal(b1-3)GalNAc(a1-3)[Fuc(a1-2)]Gal(b1-4)GlcNAc
# Procedure, shortened: as §1
# [10] = target: Gal(b1-3)GalNAc(b1-3)Gal(a1-4)Gal(b1-4)Glc
# Procedure, shortened: as §1
# [11] = target: Gal(b1-3)GalNAc(b1-4)Gal(b1-4)Glc
# Procedure, shortened: as §1
# [12] = target: Gal(b1-3)GalNAc(b1-4)[Neu5Ac(a2-3)]Gal(b1-4)Glc
# Procedure, shortened: as §1
# Gal(b1-3)GlcNAc = target: Gal(b1-3)GlcNAc
# Procedure, shortened: as §1
# [13] = target: Gal(b1-3)GlcNAc(a1-6)Gal(b1-4)GlcNAc
# Procedure, shortened: as §1
# [14] = target: Gal(b1-3)GlcNAc(b1-2)Man(a1-3)[Gal(b1-3)GlcNAc(b1-2)Man(a1-6)]Man(b1-4)GlcNAc(b1-4)GlcNAc
# Procedure, shortened: as §1
# [15] = target: Gal(b1-3)GlcNAc(b1-2)Man(a1-3)[Gal(b1-3)GlcNAc(b1-2)Man(a1-6)]Man(b1-4)GlcNAc(b1-4)[Fuc(a1-6)]GlcNAc
# Procedure, shortened: as §1
# [16] = target: Gal(b1-3)GlcNAc(b1-2)[Gal(b1-3)GlcNAc(b1-6)]Man(a1-6)[Gal(b1-3)GlcNAc(b1-2)Man(a1-3)]Man(b1-4)GlcNAc(b1-4)GlcNAc
# Procedure, shortened: as §1
# [17] = target: Gal(b1-3)GlcNAc(b1-3)Gal(b1-3)GlcNAc
# Procedure, shortened: as §1
# [18] = target: Gal(b1-3)GlcNAc(b1-3)Gal(b1-4)Glc
# Procedure, shortened: as §1
# [19] = target: Gal(b1-3)GlcNAc(b1-3)Gal(b1-4)GlcNAc
# Procedure, shortened: as §1
# [20] = target: Gal(b1-3)GlcNAc(b1-3)Gal(b1-4)GlcNAc(b1-6)[Gal(b1-3)GlcNAc(b1-3)]Gal(b1-4)Glc
# Procedure, shortened: as §1
# [21] = target: Gal(b1-3)GlcNAc(b1-3)Gal(b1-4)[Fuc(a1-3)]GlcNAc(b1-6)[Gal(b1-3)GlcNAc(b1-3)]Gal(b1-4)Glc
# Procedure, shortened: as §1
# [22] = target: Gal(b1-3)GlcNAc(b1-3)GalNAc
# Procedure, shortened: as §1
# [23] = target: Gal(b1-3)GlcNAc(b1-6)Gal(b1-4)GlcNAc
# Procedure, shortened: as §1
# [24] = target: Gal(b1-3)[Fuc(a1-4)]GlcNAc
# Procedure, shortened: as §1
# [25] = target: Gal(b1-3)[Fuc(a1-4)]GlcNAc(b1-2)Man(a1-3)[Gal(b1-3)[Fuc(a1-4)]GlcNAc(b1-2)Man(a1-6)]Man(b1-4)GlcNAc(b1-4)GlcNAc
# Procedure, shortened: as §1
# [26] = target: Gal(b1-3)[Fuc(a1-4)]GlcNAc(b1-2)Man(a1-3)[Gal(b1-3)[Fuc(a1-4)]GlcNAc(b1-2)Man(a1-6)]Man(b1-4)GlcNAc(b1-4)[Fuc(a1-6)]GlcNAc
# Procedure, shortened: as §1
# [27] = target: Gal(b1-3)[Fuc(a1-4)]GlcNAc(b1-3)Gal(b1-3)[Fuc(a1-4)]GlcNAc
# Procedure, shortened: as §1
binder,measurement,setting,value
"SEX4 (Arabidopsis thaliana), Q944A8 (protein) TQAMGAVLTYRHELGMNYNFIRPDLIVGSCLQTPEDVDKLRKIGVKTIFCLQQDPDLEYFGVDISSIQAYAKKYSDIQHIRCEIRDFDAFDLRMRLPAVVGTLYKAVKRNGGVTYVHCTAGMGRAPAVALTYMFWVQGYKLMEAHKLLMSKRSCFPKLDAIRNATIDILTGLKRKTVTLTLKDKGFSRVEISGLDIGWGQRIPLTLGKGTGFWILKRELPEGQFEYKYIIDGEWTHNEAEPFIGPNKDGHTNNYAKVVDDPTSVDGTTRERLSSEDPELLEEERSKLIQFLETCSEAEV",glycan array binding signal (z-score),[1],0.169
same,glycan array binding signal (z-score),[2],0.379
same,glycan array binding signal (z-score),Gal(a1-3)GalNAc,-0.341
same,glycan array binding signal (z-score),[3],-0.539
same,glycan array binding signal (z-score),[4],0.228
same,glycan array binding signal (z-score),Gal(a1-4)Gal(b1-4)Glc,-0.554
same,glycan array binding signal (z-score),Gal(a1-4)Gal(b1-4)GlcNAc,-0.482
same,glycan array binding signal (z-score),[5],-0.366
same,glycan array binding signal (z-score),[6],-0.01
same,glycan array binding signal (z-score),Gal(a1-4)GlcNAc,-0.518
same,glycan array binding signal (z-score),Gal(a1-6)Glc,-0.423
same,glycan array binding signal (z-score),Gal(b1-2)Gal,-0.357
same,glycan array binding signal (z-score),Gal(b1-3)Gal,-0.552
same,glycan array binding signal (z-score),Gal(b1-3)Gal(b1-4)GlcNAc,-0.509
same,glycan array binding signal (z-score),[7],-0.329
same,glycan array binding signal (z-score),Gal(b1-3)GalNAc,-0.309
same,glycan array binding signal (z-score),[8],-0.41
same,glycan array binding signal (z-score),[9],-0.415
same,glycan array binding signal (z-score),[10],-0.231
same,glycan array binding signal (z-score),[11],-0.298
same,glycan array binding signal (z-score),[12],1.17
same,glycan array binding signal (z-score),Gal(b1-3)GlcNAc,-0.554
same,glycan array binding signal (z-score),[13],-0.469
same,glycan array binding signal (z-score),[14],1.27
same,glycan array binding signal (z-score),[15],0.652
same,glycan array binding signal (z-score),[16],-0.425
same,glycan array binding signal (z-score),[17],-0.48
same,glycan array binding signal (z-score),[18],-0.527
same,glycan array binding signal (z-score),[19],-0.52
same,glycan array binding signal (z-score),[20],-0.273
same,glycan array binding signal (z-score),[21],-0.337
same,glycan array binding signal (z-score),[22],-0.374
same,glycan array binding signal (z-score),[23],-0.408
same,glycan array binding signal (z-score),[24],-0.398
same,glycan array binding signal (z-score),[25],-0.181
same,glycan array binding signal (z-score),[26],-0.406
same,glycan array binding signal (z-score),[27],-0.453
